Experimental data as given in publication PMC4336329 (PLoS ONE, 2015).
In all, about 310,000 compounds went through this assay and about 14,000 (4.5%) showed an effect of 50% or more. Effects have a minus sign here. Some of the results follow.

The compounds below were run against human ether-à-go-go-related gene (hERG) potassium channel (human, UniProt Q12809) (assay: primary screen, population patch clamp on CHO cells stably expressing hERG).
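Also: peak tail current of the secondary pulse compared with the same well before compound.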

Sequence of human ether-à-go-go-related gene (hERG) potassium channel (Q12809 whole entry, looked up): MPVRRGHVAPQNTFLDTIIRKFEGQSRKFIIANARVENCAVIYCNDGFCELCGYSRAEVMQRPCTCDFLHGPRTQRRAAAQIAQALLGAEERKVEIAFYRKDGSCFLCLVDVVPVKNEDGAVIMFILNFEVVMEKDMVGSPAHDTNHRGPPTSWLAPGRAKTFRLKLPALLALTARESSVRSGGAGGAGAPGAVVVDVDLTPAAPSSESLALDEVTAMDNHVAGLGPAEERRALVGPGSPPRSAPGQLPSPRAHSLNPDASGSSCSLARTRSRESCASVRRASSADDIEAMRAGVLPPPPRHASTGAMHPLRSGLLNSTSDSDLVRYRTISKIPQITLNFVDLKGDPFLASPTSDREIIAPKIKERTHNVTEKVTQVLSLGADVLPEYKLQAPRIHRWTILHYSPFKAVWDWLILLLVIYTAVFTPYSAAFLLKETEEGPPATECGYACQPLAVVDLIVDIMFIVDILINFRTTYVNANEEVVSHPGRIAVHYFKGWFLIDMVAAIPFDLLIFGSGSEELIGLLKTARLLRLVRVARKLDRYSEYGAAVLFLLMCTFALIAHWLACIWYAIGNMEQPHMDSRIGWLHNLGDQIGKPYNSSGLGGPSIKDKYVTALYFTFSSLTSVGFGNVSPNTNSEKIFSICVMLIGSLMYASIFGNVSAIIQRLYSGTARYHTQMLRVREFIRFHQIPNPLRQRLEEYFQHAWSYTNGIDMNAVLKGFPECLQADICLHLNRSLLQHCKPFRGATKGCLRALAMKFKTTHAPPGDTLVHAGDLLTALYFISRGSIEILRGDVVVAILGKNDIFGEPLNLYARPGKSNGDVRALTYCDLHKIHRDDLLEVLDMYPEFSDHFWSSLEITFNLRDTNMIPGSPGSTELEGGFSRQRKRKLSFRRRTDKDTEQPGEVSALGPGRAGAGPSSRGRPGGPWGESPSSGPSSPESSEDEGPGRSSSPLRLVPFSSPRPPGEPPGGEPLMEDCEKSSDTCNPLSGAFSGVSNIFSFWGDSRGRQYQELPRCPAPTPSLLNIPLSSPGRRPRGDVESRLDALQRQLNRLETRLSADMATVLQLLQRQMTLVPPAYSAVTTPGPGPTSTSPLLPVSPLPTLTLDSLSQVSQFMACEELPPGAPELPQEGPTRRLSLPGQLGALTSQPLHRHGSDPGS

Row | Structure (SMILES) | hERG current change (%, negative = inhibition) at 10uM
1 | CCCc1c(C)c2cccc(C)c2[nH]c1=O | -2.27%
2 | Cc1ccc(-c2cc(C(=O)N3CCN(c4ncccn4)CC3)c3ccccc3n2)cc1 | -40.9%
3 | O=C(NCC(=O)N(c1ccc(F)cc1)C(C(=O)NC1CCCCC1)c1ccncc1)c1ccco1 (centres unmarked) | 10.7%
4 | CN(C)S(=O)(=O)N1CCN(CC(O)COc2ccc(-c3ccccc3)cc2)CC1 (centres unmarked) | -27.3%
5 | S=C(NC1CCCC1)N1CCN(c2cccc(Cl)c2)CC1 | -0.877%
6 | Cc1ccc(S(=O)(=O)N2CCN(CC(=O)N(CC(C)C)c3c(N)n(CC(C)C)c(=O)[nH]c3=O)CC2)c(C)c1 | 12.7%
7 | CCCc1nc2sc3ccccc3c(=O)c2c(=O)n1Cc1ccc(OC)cc1 | 5.49%
8 | CCNc1nc(N)c(C(=O)C23CC4CC(CC(C4)C2)C3)s1 | -11.8%
9 | CCC(C(=O)NCc1ccc(F)cc1)N(Cc1cccs1)C(=O)c1snc(C(N)=O)c1N (centres unmarked) | -45.7%
10 | COc1ccc(C2c3[nH]c4ccccc4c3CCN2CCCn2cccn2)cc1C (centres unmarked) | -38.9%
11 | Cn1c(N)c(C(=O)COC(=O)/C=C/c2cccc(F)c2)c(=O)n(C)c1=O | -38.4%
12 | CC(C)(C)c1ccc(C(=O)CCC(=O)NCc2ccccc2)cc1 | -25.2%
13 | CCN(CC)S(=O)(=O)c1ccc2c(c1)c(=O)c(C(=O)NCCOC)cn2C | -2.75%
14 | COc1cc(C(=O)OCC(=O)Nc2cc(C)on2)ccc1OCc1ccccc1Cl | 5.19%
15 | CCCCOC(=O)Nc1ccc(C(=O)OC)cc1 | 11.7%
16 | CC(=O)c1ccc(NC(=O)CNCc2cccs2)cc1.O=C(O)C(=O)O | -0.848%
17 | CCCCC(O)(CCCC)C(=O)NNc1ccccc1 | 10.5%
18 | C=CCn1c(/N=C/c2ccc(N(C)C)cc2)nc2ccccc21 | -6.42%
19 | O=C(NCCO)C(O)C(O)C(=O)NCCO (centres unmarked) | 7.53%
20 | CCOCCCNC(=O)C(c1ccc(OC)cc1)N(Cc1cccs1)C(=O)c1ccccn1 (centres unmarked) | -2.44%
21 | Cc1ccc(NC(=O)C(=O)NCCc2c[nH]c3ccccc23)c(C)c1 | -12.5%
22 | COc1ccc(C2CCCN2C(=O)Nc2ccc(C)c(C)c2)cc1OC (centres unmarked) | -18.5%
23 | N/C(=N\OC(=O)COc1ccc2ccccc2c1Br)c1ccncc1 | 5.98%

Row | Structure (SMILES) | hERG current change (%, negative = inhibition) at 10uM
24 | CC(C)N1CN(c2ccccc2)C(=S)N(c2ccccc2)C1 | 7.3%
25 | CCOC(=O)CNC(=O)CSc1nnnn1-c1ccc(C)c(C)c1 | -2.8%
26 | Cc1ccc(NC(=S)N(CCCN2CCOCC2)Cc2ccccn2)cc1 | -22.8%
27 | O=C(CCS(=O)(=O)c1ccc(Br)s1)NCc1ccc2c(c1)OCO2 | -14%
28 | O=C(NNC(=O)C(c1ccccc1)c1ccccc1)c1cccs1 | 23.8%
29 | COC(=O)N/N=C/c1ccc(-c2cccc(Cl)c2)o1 | -3.5%
30 | O=C(Nc1ccccc1O)c1cc2cc(Br)ccc2oc1=O | 13.4%
31 | COC(=O)CC1NCCNC1=O (centres unmarked) | 11.7%
32 | CC(C)c1nnc(NC(=O)c2nc(S(=O)(=O)Cc3ccccc3F)ncc2Cl)s1 | -5.79%
33 | COCCn1c(-c2ccccc2Cl)nc2c(c(=O)c3ccccc3n2C)c1=O | -12.2%
34 | CCOC(=O)CSC1=N/C(=C/c2ccc(-n3cncn3)cc2)C(=O)N1C(C)=O | -0.255%
35 | COCc1[nH]nc2c1C1(CCC3(CC1)OCCO3)C(C#N)=C(N)O2 | 3.17%
36 | Cn1c2c(c(=O)c3ccccc31)CCC(C)(C)O2 | -3.57%
37 | COc1cc(/C=C/C(=O)O)ccc1OCc1ccc([N+](=O)[O-])cc1 | 21.8%
38 | O=[N+]([O-])c1cc(S(=O)(=O)N2CCCC2)ccc1OCCOc1ccccc1 | -32.4%
39 | CCn1c2ccc(CC(=O)O)cc2c2cc(CC(=O)O)ccc21 | 8%
40 | C#CCN(C(=O)c1ccc(OC2CCN(Cc3ccccn3)CC2)cc1)C1CCCCC1 | -39.6%
41 | CCCCCNC(=O)C1CCC(Cn2c(=S)[nH]c3ccccc3c2=O)CC1 (centres unmarked) | 13.5%
42 | N#CC(C(=O)Nc1ccc(Cl)cc1)=C1Nc2ccccc2N1 | 8.33%
43 | COc1cc(Cl)nn(-c2ccccc2)c1=O | 1.61%
44 | CC1CCCN(C(=O)Cc2cccc3ccccc23)C1 (centres unmarked) | 8.56%
45 | COc1ccc(C(=O)C2CCCN(C(=O)c3ccc4cc[nH]c4c3)C2)c(C)c1 (centres unmarked) | -1.25%
46 | CCOC(=O)CCN1C(=O)c2ccccc2Sc2ncccc21 | 12.5%

Row | Structure (SMILES) | hERG current change (%, negative = inhibition) at 10uM
47 | CCOC(=O)c1cccc(NS(=O)(=O)Cc2ccccc2)c1 | 1.95%
48 | COC(=O)C(C)NC(=O)C12CC3CC(C1)CC(c1ccc(C)cc1)(C3)C2 (centres unmarked) | -20.9%
49 | Cc1cccc(N2CCN(S(=O)(=O)c3cccs3)CC2)c1C | -15.8%
50 | CCN1C[C@]2(COC)CC[C@H](OC)[C@@]34C1[C@]1(OCO[C@@]15C[C@H](OC)[C@H]1C[C@@H]3[C@@H]5[C@H]1OC)[C@@H](O)[C@H]24 | 10.5%
51 | O=C(c1ccc2c(=O)n3c(nc2c1)CCCCC3)N1CCc2ccccc21 | -48.3%
52 | CCN(CC)C(=O)CSc1ccccc1N | 13%
53 | Nc1c(C(=O)Nc2ccccc2)nnn1-c1ccc2c(c1)OCCO2 | 16.1%
54 | Cc1ccc(/C=N/NC(=O)Cn2cnc3ccccc32)o1 | 3.48%
55 | CN(Cc1nc(Cc2ccccc2F)no1)Cc1cccc2ncccc12 | -35.7%
56 | COC(=O)CCC(=O)c1oc2ccccc2c1N | -26.3%
57 | COc1cc(NC(=S)N2CCN(C)CC2)cc(OC)c1 | 16.7%
58 | CCOc1cc(CNC2CCCC2)cc(Cl)c1OCc1ccccc1.Cl | -10.3%
59 | COc1ccc(-c2csc3ncnc(N4CCN(C(=O)c5ccco5)CC4)c23)cc1 | -75.3%
60 | Cc1c(Cl)cccc1NC(=O)Cc1ccc([N+](=O)[O-])cc1 | -1.34%
61 | C/C(CC(C)C)=N\NS(=O)(=O)c1ccc(C)c([N+](=O)[O-])c1 | -1.16%
62 | CCC(Sc1nnnn1-c1ccccc1)C(=O)Nc1nc2ccccc2s1 (centres unmarked) | -10.7%
63 | COc1ccc(S(=O)(=O)N2CCC(C(=O)NCCCc3ccccc3)CC2)cc1 | -35.9%
64 | COc1ccc(OC)c(C(=O)c2coc3ccc(OCC(=O)O)cc23)c1 | 2.9%
65 | Cc1nc2nc(SCC(=O)C(C)(C)C)[nH]c2cc1Br | 3.89%
66 | CCOC(=O)C1=C(CC)Nc2ccccc2N=C1NC(=O)CCN1C(=O)C2CCCCC2C1=O (centres unmarked) | 5.04%
67 | Cc1ccc2c(C)c(C(=O)Nc3ccc(S(N)(=O)=O)cc3)oc2c1C | 31.2%
68 | Cc1ccc(-n2c(O)c(C=NC3CCS(=O)(=O)C3)c3ccccc3c2=O)c(C)c1 (centres unmarked) | -0.346%
69 | O=C(CN1C(=O)C(=O)c2ccccc21)c1ccccc1 | 10.9%

Row | Structure (SMILES) | hERG current change (%, negative = inhibition) at 10uM
70 | CC1(c2ccccc2Cl)NC(=O)N(CC(=O)NCc2ccc3c(c2)OCO3)C1=O (centres unmarked) | 7.45%
71 | COc1ccc(CNC(=O)c2ccc(CS(=O)c3ccccc3)o2)cc1 (centres unmarked) | 4.41%
72 | CCc1nnc(SCc2ccc(OC(C)C)cc2)n1N | 9.36%
73 | COc1ccc(OC)c(NC(=O)CSC2=NN3CCCC(=O)N=C3S2)c1 | 7.78%
74 | O=C(c1ccc(-n2cncn2)c([N+](=O)[O-])c1)N1CCN(S(=O)(=O)c2ccc(Cl)cc2)CC1 | -61.4%
75 | COc1ccc(CNC(=O)CCc2ccc(S(=O)(=O)N3CCCCCC3)cc2)cc1 | -54.9%
76 | COc1cc(/C=C/[N+](=O)[O-])ccc1O | -5.46%
77 | CCNC(=O)c1ccc(-n2nc(C(F)(F)F)c3c2CCCC3)cc1 | -14.1%
78 | Nc1ccc(-c2nc3nc(N)nc(N)c3nc2-c2ccc(N)cc2)cc1 | 16.9%
79 | COC(=O)/C=C1/SC(=NC(=O)c2ccc(OC)cc2)NC1=O | 19.6%
80 | CCCN(C(=O)c1ccc(N2CCCC2=O)cc1)C1CCS(=O)(=O)C1 (centres unmarked) | 5.68%
81 | CC(=O)c1ccc(OCC(C)C)c(CN2CCCCC2)c1.Cl | -19%
82 | C=C(Cl)COc1ccc2c(CC)cc(=O)oc2c1 | -33.9%
83 | O=C(NCC(=O)N1CCN(c2ccccc2)CC1)c1ccc(Cl)cc1 | 13.6%
84 | COc1ccc(CNC(=O)C2CCNCC2)cc1 | 20.6%
85 | O=C(O)COc1ccc(S(=O)(=O)NCCc2ccccc2)cc1 | 6.4%
86 | CCN(CC)CCCN1C(=O)CSC1c1ccc([N+](=O)[O-])cc1.Cl (centres unmarked) | -72.8%
87 | CCS(=O)(=O)N1CCC(C(=O)NCC2CCCO2)CC1 (centres unmarked) | -10.8%
88 | O=c1[nH]c(CN2CCN(S(=O)(=O)c3ccccc3C(F)(F)F)CC2)nc2sc3c(c12)CCCC3 | 10.9%
89 | O=C(NCCC(=O)N1CCN(Cc2c(F)cccc2Cl)CC1)c1ccc(Cl)cc1 | -46%
